# Experimental data reported in the supplement of paper PMC8728848.
# The other results are listed elsewhere or left out.
# B1: CvGal2 (Crassostrea virginica) (protein)
# chain: MGSSHHHHHHSSGLVPRGSHMRIREAGKRKDTTKVYQIPDGLFPGQQVMLRGRVPWGSKSFSINFSATPRMGEGDILFHLNPRPSEGVCIRNALLNGSWGAEEKWQPYFPFDDGRSFSVKIEVTNDAFRTFVNGRPFVDFLHRTDFRAGKYLTLREGAEYYDVIFQSKPNIPLTTAIHNGMRIGKTIRIRGMCTAQDGFAINFNDNRNNIYFHFNARPAQRTVVRNSYFGSWGNEETAISKEFPFYPFLYFYASFVCMEDKFAVYVNDEHFIDFAHRGNPNNISVLQIKGSVNVLDTECLEPMGEDAMTEVDSGLENGDLFVLNGLMTERGKTFAVNFLNGFTENDDIALHFNPRKSTGEVVLNSRYGGAWQSEEKVALPGVFWSNRPLQVKVETKRNKFKIYVNGVDLAKYKIRGNVEDVHAVQVKGDVFLLETLLLKRLMKPVWERLTGGIRPGTWVTLQGTPKKNWQQFVVNFALDDTLDGDIAFHFNVRRGARQVVRNHRQSGAWGREETVTPFFAFDSEATFEIVFFVKEEKFLIYFNGKLFFEFVHRVPVERITHIYMDGDCNFYEPEVVI
# What was measured:
# Test in all cases: glycan array binding signal (z-score within array); higher = stronger binding
# Settings in all cases: glycan notation: IUPAC condensed, linker removed
# GalNAc(b1-4)GlcNAc = target: GalNAc(b1-4)GlcNAc
# Summary of the method: (§1)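 Arrays were curated from the Consortium for Functional Glycomics database, 3228 in total, and kept only where the protein sequence was available. Binding is expressed as a within-array Z-score. This score was averaged across arrays of the same protein sequence at different concentrations or buffers and across linkers, and negative values can be read as non-binding.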
# [1] = target: GalNAc(b1-4)GlcNAc(b1-2)Man
# Summary of the method: as §1
# [2] = target: GalNAc(b1-4)GlcNAc(b1-2)Man(a1-3)[GalNAc(b1-4)GlcNAc(b1-2)Man(a1-6)]Man(b1-4)GlcNAc(b1-4)GlcNAc
# Summary of the method: as §1
# [3] = target: GalNAc(b1-4)GlcNAc(b1-3)GalNAc(b1-4)GlcNAc
# Summary of the method: as §1
# GalNAc(b1-4)GlcNAc6S = target: GalNAc(b1-4)GlcNAc6S
# Summary of the method: as §1
# GalNAc(b1-6)GalNAc = target: GalNAc(b1-6)GalNAc
# Summary of the method: as §1
# GalNAc3S(b1-4)GlcNAc = target: GalNAc3S(b1-4)GlcNAc
# Summary of the method: as §1
# GalNAc3S(b1-4)GlcNAc3S = target: GalNAc3S(b1-4)GlcNAc3S
# Summary of the method: as §1
# [4] = target: GalNAc3S(b1-4)[Fuc(a1-3)]GlcNAc
# Summary of the method: as §1
# GalNAc4S6S(b1-4)GlcNAc = target: GalNAc4S6S(b1-4)GlcNAc
# Summary of the method: as §1
# GalNAc6S(b1-4)GlcNAc = target: GalNAc6S(b1-4)GlcNAc
# Summary of the method: as §1
# Glc(a1-4)Glc = target: Glc(a1-4)Glc
# Summary of the method: as §1
# [5] = target: Glc(a1-4)Glc(a1-4)Glc(a1-4)Glc
# Summary of the method: as §1
# Glc(a1-6)Glc(a1-6)Glc = target: Glc(a1-6)Glc(a1-6)Glc
# Summary of the method: as §1
# [6] = target: Glc(a1-6)Glc(a1-6)Glc(a1-6)Glc
# Summary of the method: as §1
# Glc(b1-4)Glc = target: Glc(b1-4)Glc
# Summary of the method: as §1
# Glc(b1-6)Glc = target: Glc(b1-6)Glc
# Summary of the method: as §1
# GlcA(b1-3)Gal = target: GlcA(b1-3)Gal
# Summary of the method: as §1
# GlcA(b1-3)GlcNAc = target: GlcA(b1-3)GlcNAc
# Summary of the method: as §1
# GlcA(b1-6)Gal = target: GlcA(b1-6)Gal
# Summary of the method: as §1
# [7] = target: GlcA3S(b1-3)Gal(b1-4)GlcNAc(b1-2)Man
# Summary of the method: as §1
# [8] = target: GlcA3S(b1-3)Gal(b1-4)GlcNAc(b1-3)Gal(b1-4)Glc
# Summary of the method: as §1
# [9] = target: GlcNAc(a1-3)Gal(b1-4)GlcNAc
# Summary of the method: as §1
# [10] = target: GlcNAc(a1-4)Gal(b1-3)GlcNAc
# Summary of the method: as §1
# [11] = target: GlcNAc(a1-4)Gal(b1-4)GalNAc
# Summary of the method: as §1
# [12] = target: GlcNAc(a1-4)Gal(b1-4)GlcNAc
# Summary of the method: as §1
# [13] = target: GlcNAc(a1-4)Gal(b1-4)GlcNAc(b1-3)Gal(b1-4)Glc
# Summary of the method: as §1
# [14] = target: GlcNAc(a1-4)Gal(b1-4)GlcNAc(b1-3)Gal(b1-4)GlcNAc
# Summary of the method: as §1
# [15] = target: GlcNAc(a1-4)Gal(b1-4)GlcNAc(b1-3)Gal(b1-4)GlcNAc(b1-3)Gal(b1-4)GlcNAc
# Summary of the method: as §1
# [16] = target: GlcNAc(a1-4)Gal(b1-4)GlcNAc(b1-3)Gal(b1-4)[Fuc(a1-3)]GlcNAc(b1-3)Gal(b1-4)[Fuc(a1-3)]GlcNAc
# Summary of the method: as §1
binder,measurement,setting,value
B1,glycan array binding signal (z-score),GalNAc(b1-4)GlcNAc,-0.33
same,glycan array binding signal (z-score),[1],-0.333
same,glycan array binding signal (z-score),[2],-0.322
same,glycan array binding signal (z-score),[3],-0.322
same,glycan array binding signal (z-score),GalNAc(b1-4)GlcNAc6S,-0.324
same,glycan array binding signal (z-score),GalNAc(b1-6)GalNAc,-0.336
same,glycan array binding signal (z-score),GalNAc3S(b1-4)GlcNAc,-0.329
same,glycan array binding signal (z-score),GalNAc3S(b1-4)GlcNAc3S,-0.335
same,glycan array binding signal (z-score),[4],-0.322
same,glycan array binding signal (z-score),GalNAc4S6S(b1-4)GlcNAc,-0.33
same,glycan array binding signal (z-score),GalNAc6S(b1-4)GlcNAc,-0.342
same,glycan array binding signal (z-score),Glc(a1-4)Glc,-0.341
same,glycan array binding signal (z-score),[5],-0.338
same,glycan array binding signal (z-score),Glc(a1-6)Glc(a1-6)Glc,-0.343
same,glycan array binding signal (z-score),[6],-0.334
same,glycan array binding signal (z-score),Glc(b1-4)Glc,-0.337
same,glycan array binding signal (z-score),Glc(b1-6)Glc,-0.325
same,glycan array binding signal (z-score),GlcA(b1-3)Gal,-0.33
same,glycan array binding signal (z-score),GlcA(b1-3)GlcNAc,-0.318
same,glycan array binding signal (z-score),GlcA(b1-6)Gal,-0.337
same,glycan array binding signal (z-score),[7],-0.307
same,glycan array binding signal (z-score),[8],-0.304
same,glycan array binding signal (z-score),[9],1.33
same,glycan array binding signal (z-score),[10],-0.332
same,glycan array binding signal (z-score),[11],-0.336
same,glycan array binding signal (z-score),[12],-0.339
same,glycan array binding signal (z-score),[13],-0.342
same,glycan array binding signal (z-score),[14],-0.333
same,glycan array binding signal (z-score),[15],-0.328
same,glycan array binding signal (z-score),[16],-0.319
